The source of these data is the supplement of paper PMC6135742.

SMILES strings stand for the structures. Counter-ions that a name gives are not always drawn. ± gives the standard deviation of the averaged measurements. Over roughly 2,600 compounds, “total cell number (DAPI+ nuclei) relative to DMSO vehicle control” has its median near -1.4; the lowest 2% begin near -23. This is one part of the list.

This assay concerns jimpy (Plp1 jimpy) mouse iPSC-derived oligodendrocyte progenitor cells. The assay can be described thus: total cell number (DAPI+ nuclei) relative to DMSO vehicle control (SDs above negative control mean); higher = more surviving cells. As to conditions: 10 µM; 3 days.
The compound `C[C@]12CCC(=O)C=C1[C@@H]1C[C@@H]1[C@H]1[C@@H]3[C@@H]4C[C@@H]4[C@@]4(CCC(=O)O4)[C@@]3(C)CC[C@@H]12` [Drospirenone] gave a total cell number of -1.26.
Regarding `COc1ccc2cc([C@H](C)C(=O)O)ccc2c1` [Naproxen], the total cell number was -0.0804.
The compound `COc1ccc2cc([C@H](C)C(=O)O)ccc2c1` [(-)-Naproxen sodium] registered a total cell number of -1.87.
`N#Cc1cc(CN2CCC(Nc3ncnc4sc(Cl)cc34)CC2)ccc1F` displayed a total cell number of -7.89.
`Nc1ncnc2c1ncn2[C@@H]1O[C@H](COP(=O)(O)OP(=O)(O)OP(=O)(O)OP(=O)(O)OC[C@@H]2O[C@H](n3cnc4c(N)ncnc43)C(O)[C@@H]2O)[C@H](O)C1O` (stereo partly drawn) [P1,P4-Di(adenosine-5')tetraphosphate triammonium] came in with a total cell number of -0.947.
In turn, `Nc1cc(N2CCCCC2)nc(N)[n+]1[O-]` [Minoxidil] gave a total cell number of -1.83.
The same measure for `OC1(c2ccc(Cl)cc2)CCN(Cc2c[nH]c3ccccc23)CC1`: -5.17; for `Cc1ncc([N+](=O)[O-])n1CC(C)O` (stereo not drawn) [Secnidazole]: -1.04.
The same measure for `OCCn1cc(-c2cnc3nnn(Cc4ccc5ncccc5c4)c3n2)cn1`: 3; for `O=C(O)c1cc2cc(Cc3cccnc3)ccc2o1` [Furegrelate sodium]: -0.806.
In the case of `NC(=O)c1ccc(I)c([N+](=O)[O-])c1` [Iniparib (BSI-201)] it was -4.49.
`O=C(O)c1cc(/N=N/c2ccc(S(=O)(=O)Nc3ccccn3)cc2)ccc1O` [Sulfasalazine] showed a total cell number of -0.33.
`c1ccc(C2CN3CCSC3=N2)cc1` (single isomer, unassigned; (-)) [(-)-Tetramisole hydrochloride]: the total cell number is -0.37.
In the case of `c1ccc(C2CN3CCSC3=N2)cc1` (single isomer, unassigned; (-)) [(-)-Tetramisole] it was -1.04; in that of `CN/C(=N\CCSCc1nc[nH]c1C)NC#N` [Cimetidine], -0.0647 ± 3.1; in that of `COc1ccc(C2=N[C@@H](c3ccc(Cl)cc3)[C@@H](c3ccc(Cl)cc3)N2C(=O)N2CCNC(=O)C2)c(OC(C)C)c1` [Nutlin-3], -23.5.
`O=c1oc2cc(O)ccc2s1` [Tioxolone]: the total cell number is -2.27.
In the case of `COc1cc2ncnc(Nc3cccc(Cl)c3)c2cc1OC` [Tyrphostin AG 1478] it was -5.25.
The same measure for `COc1cc2ncnc(Nc3cccc(Cl)c3)c2cc1OC` [AG-1478 (Tyrphostin AG-1478)]: -7.87.
On to `C[C@]12CCC3=C4CCC(=O)C=C4CC[C@H]3[C@@H]1CC[C@@]2(O)CC#N` [Dienogest], for which the total cell number was -2.34.
The same measure for `O=C(O)[C@H](CC(=O)N1C[C@H]2CCCC[C@H]2C1)Cc1ccccc1` [Mitiglinide calcium]: -0.654; for `c1coc(CNc2ncnc3[nH]cnc23)c1` [Kinetin]: 0.658.
In the case of `S=c1[nH]c(-c2ccccc2)cn1-c1ccccc1` it was -0.664; in that of `C[C@@H]1C[C@H]2[C@@H]3CCC4=CC(=O)C=C[C@]4(C)[C@@]3(Cl)[C@@H](O)C[C@]2(C)[C@@]1(OC(=O)c1ccco1)C(=O)CCl` [Mometasone furoate], -0.0447.
In turn, `CCOC(=O)[C@H](CCc1ccccc1)N[C@@H](C)C(=O)N1C(=O)N(C)C[C@H]1C(=O)O` [Imidapril HCl] came in with a total cell number of 0.247.
In the case of `CCOC(=O)c1cnc2c(cnn2CC)c1NN=C(C)C` [Etazolate hydrochloride] it was -1.19; in that of `Cc1ccc(NC(=O)C2(c3ccc4c(c3)OC(F)(F)O4)CC2)nc1-c1cccc(C(=O)O)c1` [VX-809 (Lumacaftor)], 1.21.
`Cn1cc(/C=C2\C(=O)Nc3cccnc32)c2ccccc21` came in with a total cell number of -4.69.
`CC(C)OC(=O)C(C)(C)Oc1ccc(C(=O)c2ccc(Cl)cc2)cc1` [Fenofibrate] came in with a total cell number of -1.69 ± 1.2.
As to `CCN(CC)CCOc1ccc(Nc2ncc3cc(-c4c(Cl)cccc4Cl)c(=O)n(C)c3n2)cc1`, the total cell number is -10.7.
In turn, `NC(=O)CC[C@H](N)C(=O)O` [L-Glutamine] returned a total cell number of -1.71.
The same measure for `CCn1c(-c2nonc2N)nc2c(C#CC(C)(C)O)ncc(OC[C@H]3CCCNC3)c21`: -5.14; for `O=S(=O)(O)Oc1ccc(C(c2ccc(OS(=O)(=O)O)cc2)c2ccccn2)cc1` [Sodium Picosulfate]: 0.486; for `CN1C(=O)C(Cc2c[nH]c3ccccc23)NC1=S` (stereo not drawn) [Necrostatin-1]: 0.123 ± 0.72.
`Cc1cc2c(s1)Nc1ccccc1N=C2N1CCN(C)CC1` [Olanzapine] registered a total cell number of -2.67 ± 0.65.
`NC(=O)c1ccc(-c2nc(-c3ccccn3)c(-c3ccc4c(c3)OCO4)[nH]2)cc1` yielded a total cell number of -5.41.
As for `Cc1cn(-c2cc(NC(=O)c3ccc(C)c(Nc4nccc(-c5cccnc5)n4)c3)cc(C(F)(F)F)c2)cn1` [Nilotinib (AMN-107)], the total cell number is -6.92.
As for `CCCCN(CCCC)CC(O)c1cc(Cl)cc2c1-c1ccc(Cl)cc1/C2=C/c1ccc(Cl)cc1` (stereo not drawn) [Lumefantrine], the total cell number was -1.83.
The same measure for `C[C@@H](O[C@H]1OCCN(Cc2n[nH]c(=O)[nH]2)[C@H]1c1ccc(F)cc1)c1cc(C(F)(F)F)cc(C(F)(F)F)c1` [Aprepitant]: -9.88; for `CCCNC(=O)Nc1ccc(Oc2ncnc3cc(OC)c(OC)cc23)cc1Cl`: -7.69.
On to `O=C(O)c1cc(=O)c2c(Cl)cc(Cl)cc2[nH]1` [5,7-Dichlorokynurenic acid], for which the total cell number is -1.95.
In the case of `CCN1C[C@H](C)n2c(c(O)c3c(=O)n(Cc4ccc(F)c(Cl)c4)nc(C(=O)NC)c32)C1=O` it was -2.03; in that of `CC(=O)c1c(C)c2cnc(Nc3ccc(N4CCNCC4)cn3)nc2n(C2CCCC2)c1=O`, -20.4.
Take `O=Nc1ccc2oc(=O)ccc2c1` [6-Nitroso-1,2-benzopyrone]: the total cell number was -2.62.
In the case of `CC(C)(C)c1ccc(S(=O)(=O)/C=C/C#N)cc1` it was -4.62.
`O=c1cc(-c2ccccc2)oc2cc(O)c(O)c(O)c12` [Baicalein] came in with a total cell number of -6.52.
`N[C@@H](CCCC(=O)O)C(=O)O` [L-2-aminoadipic acid] gave a total cell number of 0.747.
Turning to `O=c1[nH]c2cc(C(F)(F)F)ccc2n1-c1cc(C(F)(F)F)ccc1O`, the total cell number was -1.85.
As to `COc1cc(C2Oc3cc([C@H]4Oc5cc(O)cc(O)c5C(=O)[C@@H]4O)ccc3OC2CO)ccc1O` (stereo partly drawn) [Silymarin], the total cell number was -0.808.
In the case of `COc1cc(C2Oc3cc([C@H]4Oc5cc(O)cc(O)c5C(=O)[C@@H]4O)ccc3OC2CO)ccc1O` (stereo partly drawn) [Silibinin] it was 0.57; in that of `C[C@]1(c2nc3c(C(N)=O)cccc3[nH]2)CCCN1` [Veliparib (ABT-888)], -1.63.
The same measure for `CC(=O)N[C@@H](CS)C(=O)O` [N-Acetyl-L-Cysteine]: -0.217.
For `CC(=O)N[C@@H](CS)C(=O)O` [Acetylcysteine], the total cell number was -0.116.
In the case of `CC(=O)O[C@H]1C[C@@]2(C)[C@@H](C[C@@H](O)[C@H]3[C@@]4(C)CC[C@@H](O)[C@@H](C)[C@@H]4CC[C@@]32C)/C1=C(\CCC=C(C)C)C(=O)O` [Fusidic acid sodium] it was -0.624.
With `O=c1[nH]c(=O)c2nc3ccccc3nc2[nH]1` [Alloxazine], the total cell number is -1.59.
The compound `O=C(O)Cc1cccc(OCCCN(Cc2cccc(C(F)(F)F)c2Cl)CC(c2ccccc2)c2ccccc2)c1` returned a total cell number of 7.66.
In the case of `O=c1cc(-c2ccccc2)[nH]c2nc(Cl)ccc12` [7-Chloro-4-hydroxy-2-phenyl-1,8-naphthyridine] it was -5.03.
In the case of `COc1cccc2cc(-c3nc([C@H]4CC[C@H](C(=O)O)CC4)n4ncnc(N)c34)[nH]c12` it was -7.04.
`O=C1CCC[C@@H]2[C@H]3CCC[N+]4([O-])CCC[C@@H](CN12)[C@@H]34` (stereo partly drawn) [Oxymatrine] showed a total cell number of -0.222.
In the case of `CCN(CC)CCOC(=O)c1ccc(N)cc1` [Procaine hydrochloride] it was 0.73.
The same measure for `CCN(CC)CCOC(=O)c1ccc(N)cc1` [Procaine HCl]: 0.422.
The same measure for `NC1CCN(O)C1=O` (racemic): -1.52; for `CC[C@H](C)C(=O)O[C@H]1C[C@@H](C)C=C2C=C[C@H](C)[C@H](CC[C@@H]3C[C@@H](O)CC(=O)O3)[C@H]21` [Lovastatin]: -7.33.
`Clc1ccc(C(Cn2ccnc2)OCc2ccc(Sc3ccccc3)cc2)c(Cl)c1` (stereo not drawn) [Fenticonazole Nitrate] registered a total cell number of -0.366.
In the case of `Fc1ccc2[nH]c(CN3CCN(c4ccccn4)CC3)cc2c1` it was -2.06; in that of `C[C@H](Cn1cnc2c(N)ncnc21)OCP(=O)(O)O` [Tenofovir], -0.772.
The same measure for `CCCCNc1cc(C(=O)O)cc(S(N)(=O)=O)c1Oc1ccccc1` [Bumetanide]: -4.15 ± 9.7; for `CC(C)n1c(/C=C/C(O)CC(O)CC(=O)O)c(-c2ccc(F)cc2)c2ccccc21` (stereo not drawn) [Fluvastatin Sodium]: -5.69; for `CC(C)(C)c1ccc(C(=O)CCCN2CCC(OC(c3ccccc3)c3ccccc3)CC2)cc1` [Ebastine]: -13.8 ± 3.7.
Compound `O=c1ccn([C@@H]2O[C@H](CO)[C@@H](O)[C@H]2O)c(=O)[nH]1` [Uridine] showed a total cell number of -3.37.
In the case of `COCc1nc2c([nH]1)c(=O)n(C)c(=O)n2CC(C)C` [8-Methoxymethyl-3-isobutyl-1-methylxanthine], the total cell number was -1.77.
`CCCCS(=N)(=O)CCC(N)C(=O)O` (racemic) [L-Buthionine-sulfoximine] registered a total cell number of -0.554.
The same measure for `CCCCS(=N)(=O)CCC(N)C(=O)O` (racemic) [DL-Buthionine-[S,R]-sulfoximine]: -1.9.
The same measure for `Cc1ccnc(NS(=O)(=O)c2ccc(N)cc2)n1` [Sulfamerazine]: -2.88; for `CCC[S+]([O-])c1ccc2[nH]c(NC(=O)OC)nc2c1` (stereo not drawn) [Albendazole Oxide]: 0.277; for `NC(=O)OCC(COC(N)=O)c1ccccc1` [Felbamate]: 0.539 ± 2.
With `COC(=O)N[C@H](C(=O)N[C@@H](Cc1ccccc1)[C@@H](O)CN(Cc1ccc(-c2ccccn2)cc1)NC(=O)[C@@H](NC(=O)OC)C(C)(C)C)C(C)(C)C` [Atazanavir Sulfate], the total cell number is -1.74.
As for `CNC[C@H](O)[C@@H](O)[C@H](O)[C@H](O)CO` [Meglumine], the total cell number was -0.831.
